Data as given in paper PMC4336329 (PLoS ONE, 2015).
Screen size: about 310,000 compounds; about 2,200 (0.71%) showed an effect of 50% or more. Effects have a minus sign here. This is one part of the list.

Each molecule was assayed against human ether-à-go-go-related gene (hERG) potassium channel (human, UniProt Q12809) (assay: primary screen, population patch clamp on CHO cells stably expressing hERG).
Sequence of human ether-à-go-go-related gene (hERG) potassium channel (Q12809 whole entry, looked up): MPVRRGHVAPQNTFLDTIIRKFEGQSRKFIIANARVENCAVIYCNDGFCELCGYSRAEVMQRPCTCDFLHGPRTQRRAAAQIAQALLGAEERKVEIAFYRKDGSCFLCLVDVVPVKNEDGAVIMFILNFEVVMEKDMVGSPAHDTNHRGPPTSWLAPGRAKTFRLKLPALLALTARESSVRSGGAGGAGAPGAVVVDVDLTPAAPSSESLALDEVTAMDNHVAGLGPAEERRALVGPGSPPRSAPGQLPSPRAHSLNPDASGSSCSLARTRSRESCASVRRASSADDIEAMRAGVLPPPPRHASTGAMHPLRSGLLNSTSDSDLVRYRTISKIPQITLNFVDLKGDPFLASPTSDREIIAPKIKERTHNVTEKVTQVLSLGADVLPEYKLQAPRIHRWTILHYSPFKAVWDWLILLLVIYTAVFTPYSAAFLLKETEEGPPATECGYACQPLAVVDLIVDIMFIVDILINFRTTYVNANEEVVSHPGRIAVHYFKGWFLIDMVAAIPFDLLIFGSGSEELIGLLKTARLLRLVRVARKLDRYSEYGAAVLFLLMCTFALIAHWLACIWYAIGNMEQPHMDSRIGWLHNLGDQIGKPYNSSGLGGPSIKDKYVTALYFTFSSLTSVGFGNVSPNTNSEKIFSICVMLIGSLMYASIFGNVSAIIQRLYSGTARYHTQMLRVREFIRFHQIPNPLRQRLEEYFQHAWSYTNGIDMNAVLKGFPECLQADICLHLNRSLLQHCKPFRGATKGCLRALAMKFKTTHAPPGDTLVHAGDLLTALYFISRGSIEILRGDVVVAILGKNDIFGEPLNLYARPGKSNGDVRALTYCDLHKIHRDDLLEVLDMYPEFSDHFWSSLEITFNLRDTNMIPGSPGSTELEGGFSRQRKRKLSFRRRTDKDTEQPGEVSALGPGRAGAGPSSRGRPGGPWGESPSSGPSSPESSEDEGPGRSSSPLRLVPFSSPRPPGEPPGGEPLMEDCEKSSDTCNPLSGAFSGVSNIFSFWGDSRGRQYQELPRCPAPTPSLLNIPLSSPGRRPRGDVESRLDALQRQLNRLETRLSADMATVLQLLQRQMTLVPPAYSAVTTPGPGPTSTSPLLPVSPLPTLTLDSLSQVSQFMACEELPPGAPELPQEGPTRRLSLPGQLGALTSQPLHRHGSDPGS

SMILES	hERG current change (%, negative = inhibition) at 1uM [%]
Cc1ccc(Nc2ncnc3sc(C)c(C)c23)cc1C	13.5
Cc1csc(CN(C)C(=O)CC2C(=O)NCCN2Cc2ccc(-c3ccccc3)cc2)n1 (stereo not drawn)	11.8
Cc1ccc(NS(=O)(=O)c2ccc3c(c2)CC(=O)N3)cc1F	23
O=C(CCNc1cc(Cl)cc(Cl)c1)c1ccco1	7.24
COc1ccc(NC(=O)COn2nnc3ccc(Cl)cc32)cc1OC	14
Cc1nc2nc[nH]n2c(=O)c1NS(=O)(=O)c1ccc([N+](=O)[O-])cc1	13.7
C=CCn1cc(Cl)cc(C(=O)Nc2ccccc2)c1=O	8.64
Nc1ccc(-c2c3ccc(=O)cc-3oc3cc(O)ccc23)c(C(=O)O)c1	12.4
CCC1CCCCN1S(=O)(=O)c1ccc(C(=O)Nc2nnc(C3CC3)o2)cc1 (stereo not drawn)	5.35
CC(C)OCCCNC(=O)c1ccc2c(c1)ncn2C1CCCC1	6.25
Cc1cc(OC(C)C(N)=O)nc(-c2ccccc2)n1 (stereo not drawn)	4.52
CCC(=O)N1CCN(c2cc3c(cc2F)c(=O)c(C(=O)O)cn3CC)CC1	6.89
CC12CCC(C(=O)Nc3ccccc3Br)(C/C1=N\O)C2(C)C (stereo not drawn)	11.7
O=S(=O)(NCc1ccccc1)NCc1ccccc1	11.8
COC(=O)c1ccc(CSC(=N)N)o1	6.49
O=C(OC1CCOC1=O)c1ccc2ccccc2n1 (stereo not drawn)	7.36
Cc1ccc2c(CN3CCOCC3)cc(=O)oc2c1	-6.01
COc1ccc(OC)c(NC(=O)CSC2=NCCS2)c1	8.51
Cc1cccc(N2C(=O)CSC2c2cccnc2)c1 (stereo not drawn)	13.6
COc1ccc(S(=O)(=O)N2CCN(C(=O)C3COc4ccccc4O3)CC2)cc1 (stereo not drawn)	8.97
O=C1CC(N2CCN(c3ccccc3F)CC2)C(=O)N1c1ccc2c(c1)OCCO2 (stereo not drawn)	21.3
Cc1ccc(OCc2cc(C(=O)N3CC4C[C@@H]5CC3C[C@H](C4)C5)no2)cc1C	18.4

SMILES	hERG current change (%, negative = inhibition) at 1uM [%]
COc1ccc(N(CC(=O)Nc2ccc(C(N)=O)cc2)S(=O)(=O)c2ccc(C)c([N+](=O)[O-])c2)cc1	13.5
Cc1nn(C)cc1C=NCCOCc1ccccc1	3.34
COCC(=O)Nc1sc2c(c1C(=O)OC)CCCC2	-15.9
CN(C1=NS(=O)(=O)c2ccccc21)c1ccc(OC(=O)c2ccccc2)cc1	16.4
COc1ccc(NC(=O)CS(=O)(=O)c2ccccc2)cc1	15.7
O/N=C/c1cccn1-c1ccc(O)cc1	-4.18
Nc1ncnc2nc[nH]c12	15.6
Cc1cc(Cl)ccc1OCC(=O)N/N=C1\CCCc2ccccc21	-4.02
O=C(NCCCN1CCCC1=O)C1CCC(CNS(=O)(=O)c2ccc(Cl)cc2)CC1 (stereo not drawn)	3.3
COc1ccc(Cl)cc1NC(=O)CN(C)C(=O)CN1C(=O)NC(C)(C)C1=O	12.2
CCOC(=O)C1CCCN(C(=O)c2cnn3c(C(F)F)cc(-c4ccc(C)cc4)nc23)C1 (stereo not drawn)	-3.14
CN1CCN(c2ccccc2NC(=O)c2cccs2)CC1	-8.79
COC(=O)NNC(=O)C(c1ccccc1)c1ccccc1	10.1
CCOC(=O)C1CCN(S(=O)(=O)c2c(C)[nH]c(C)c2C(=O)N2CCCC2)CC1	12.1
O=C(Cn1cnc2c(nnn2Cc2ccc(Cl)cc2)c1=O)N1CCN(c2ccccc2)CC1	3.91
NS(=O)(=O)c1ccc(CCN2C(=O)CCC2=O)cc1	10.5
Cc1ccc(N(CC(=O)N2CCOCC2)S(C)(=O)=O)cc1C	-1.99
COc1ccc(NS(=O)(=O)c2cccc(C(=O)N/N=C/c3ccc4c(c3)OCCO4)c2)cc1	9.64
Cc1c(NC(=O)c2ccc(Cl)s2)c(=O)n(-c2ccccc2)n1C	8.57
Cc1cc(/C=C(/C#N)c2cccc(Cl)c2)c(C)n1C	10.4
O=C(CN1CCN(S(=O)(=O)c2ccc(F)cc2)CC1)Nc1cc(C(F)(F)F)ccc1Cl	8.76
CN(C)CCN(C(=O)c1ccc(S(=O)(=O)N(C)CC2CCCO2)cc1)c1nc2cc3c(cc2s1)OCO3.Cl (stereo not drawn)	0.275

SMILES	hERG current change (%, negative = inhibition) at 1uM [%]
CCN1CCN(C(=O)CN2C(=O)COc3ccc(S(=O)(=O)N4CCOCC4)cc32)CC1	13.5
O=C(N/N=C/c1cccc(Oc2ccccc2)c1)c1cccc(Br)c1	11.3
COc1cc(C(C)=O)ccc1Oc1cnccn1	18.6
Cc1ccccc1C(=O)Nc1ccnn1C1CCN(CCCc2ccccc2)CC1	-84.5
CNC(=O)[C@H](C)[C@@H]1C[C@@]1(C)[C@@H](NC(=O)OCc1ccccc1)c1ccccc1	13.5
CCN1C(=O)[C@H]2[C@@H](c3ccc(-c4ccc5c(c4)OCO5)cc3)N3CCC[C@@]3(C(=O)OC)[C@H]2C1=O.O=C(O)C(F)(F)F	7.54
COc1ccc(Cn2c(CCC(=O)O)nc3cccnc32)cc1	24.8
COc1cc2cc(Oc3ccc4ccc(=O)oc4c3)c(=O)oc2cc1OC(=O)/C=C/c1ccccc1	-5.05
CCn1cc(C(=O)NCc2cccnc2)c2cc(OC)c(OC)cc2c1=O	6.13
CNS(=O)(=O)c1cccc(C(=O)OCC(=O)c2ccc(S(=O)(=O)N3CCCCC3)cc2)c1	12.8
O=C(Nn1c(-c2ccc(F)cc2)nc2ccccc2c1=O)c1cccnc1	12.1
COC(=O)C1=C(c2ccc(F)cc2OCc2ccccc2)C[C@@H]2CC[C@H]1N2C(=O)NCc1ccc2c(c1)OCO2	5.53
Cc1cc(Cl)ccc1NC(=O)CN1C(=O)NC2(CCCC2)C1=O	4.42
CCCCOc1ccc(C2CCC(C(C)=O)C(C)C2)cc1 (stereo not drawn)	2.33
Cc1ccsc1C(=O)C1CCCN(Cc2cn(C)nc2C)C1 (stereo not drawn)	-9.22
COc1ccc(NS(=O)(=O)c2cccc(C(=O)NNC(=O)COc3ccccc3)c2)cc1	6.25
O=C1CCCN1CC(O)CS(=O)(=O)Cc1ccc(Cl)c(Cl)c1 (stereo not drawn)	3.4
CCOc1cc(C2C(C#N)=C(N)Oc3n[nH]c(-c4ccncc4)c32)cc([N+](=O)[O-])c1O (stereo not drawn)	24.5
O=C(Nc1cccc(F)c1)c1cccc2c1C(=O)N(C1CCCCC1)C2	14
CCOc1ccc(-c2c(=O)n(OCc3ccccn3)c3ccccc3[n+]2[O-])cc1	12.6
O=C(Nc1nccs1)c1ccc(Br)o1	2.31
CCOC(CNC(=O)C(=O)Nc1cc2c3c(c1)CCN3C(=O)CC2)OCC	-14.9

SMILES	hERG current change (%, negative = inhibition) at 1uM [%]
CCC(Sc1nc(-c2ccccc2)c(C#N)c(=O)[nH]1)C(=O)Nc1nnc(C)s1 (stereo not drawn)	4.53
Cl.Fc1cccc(C2NCc3ccccc3-n3cccc32)c1 (stereo not drawn)	7.86
COc1ccc2cc(C(c3nnnn3C(C)(C)C)N3CCc4ccccc4C3)c(=O)[nH]c2c1 (stereo not drawn)	6.1
S=c1[nH]nc(COc2ccc(Cl)cc2)o1	22.9
Cc1ccc(NC(=O)c2ccc3nc[nH]c3c2)nc1	10.6
CC(Cc1ccccc1)N1Cc2ccccc2C1 (stereo not drawn)	9.38
CCOP(=O)(OCC)/C(C#N)=C/c1ccc(Br)cc1	9.34
CN(c1ccccc1)S(=O)(=O)c1cccc(NC(=O)Cc2ccc(Cl)cc2)c1	16.4
CC(C)Cn1c(CN2CCN(C(=O)c3ccco3)CC2)nc2c1c(=O)n(C)c(=O)n2C	6.08
Clc1ccc(-c2nnc3sc(-c4ccc(Br)o4)nn23)cc1	9.66
CC(=Nc1ccccc1N)c1c(O)n(C)c(=O)n(C)c1=O	13.3
O=c1c2c(-c3ccc([N+](=O)[O-])cc3)ccnc2[nH]n1-c1ccccc1	1.24
O=C(/C=C/c1ccccc1)N1CCC[C@H]1CO	13
Cc1ccc(C(=O)c2coc3cc([N+](=O)[O-])c(O)c([N+](=O)[O-])c23)cc1	7.26
CCOC(=O)C1=C(C)N(c2ccccc2)C(=O)C1CC(=O)O (stereo not drawn)	7.4
CCN(CC)c1nc2nonc2nc1N(CC)CC	9.54
O=C(N/N=C\c1ccc(O)c([N+](=O)[O-])c1)c1ccccc1-n1cccc1	10.4
CN(CC(=O)Nc1cccc(S(=O)(=O)N2CCOCC2)c1)CC(=O)Nc1ccc(Cl)c(C(F)(F)F)c1	8.96
CC(=O)Nc1ccc(NC(=O)CSCCc2ccccn2)cc1	10.3
C=CCNc1nc(-c2ccccn2)nnc1-c1ccccc1	8.39
COc1ccc(N(CC(=O)N2CCc3ccccc32)S(=O)(=O)c2c(C)n[nH]c2C)cc1	-0.973
